Assay results from PubChem BioAssay (Tox21).
The inconclusive results got no clear call from the source; some entries with a clear call stand among them for comparison. Potencies of inconclusive entries are doubtful fits and often do not repeat. Active and inactive are the calls of the source. Unless noted, the call rests on the fitted dose curve.

test: qHTS assay to identify small molecule agonists of the hypoxia (HIF-1) signaling pathway - cell viability counter screen (AID 1224844); conditions: HRE-bla ME-180 viability, CellTiter-Glo luminescence, 17 h; series mostly up to 76.8 µM; further: nearly all actives have a fitted effect of over 50% in size
In short: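 Cells (HRE-bla ME-180, 2,000 per well) sat 5 hrs at 37C, got compound for 17 hrs, were read for CCF4-AM FRET, and were finally lysed with CellTiter-Glo for a 30 min room-temperature luminescence read.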
On the % scale 0 is the no-effect control and ±100 the full control effect; potency means the concentration at half of the fitted maximal effect; tags describe the fitted curve by direction and shape or compound fluorescence and quenching.

Compound | Potency
Nc1nc(CC(=O)O)cs1 | inconclusive: 6.94 µM [cytotoxic, single point]
COc1ccc(C(=O)Nc2nc3ccccc3c(NCc3ccccc3)c2C#N)cc1 | inconclusive: 24.5 µM [cytotoxic, partial curve, poor fit]
NNc1nncc2ccccc12 | inactive
O=C1[C@H](CC[C@H](O)c2ccc(F)cc2)[C@@H](c2ccc(O)cc2)N1c1ccc(F)cc1 | inconclusive: 19 µM [cytotoxic, partial curve, poor fit]

test: qHTS assay to identify small molecule agonists of H2AX (AID 1224845; active means well fitted activation curve with a large enough effect in the signal ratio in the repeat runs, not every such curve was filed as active; inconclusive means weak or mixed curves; the % refers to the signal ratio); conditions: CHO-K1 phospho-H2AX Ser139 HTRF, 3 h; activation (H2AX phosphorylation): at 154 µM (top of the series) unless noted
In short: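 Phospho-H2AX Ser139 measured by HTRF (ex 320 nm; em 665 and 620 nm) after 24 hr antibody incubation. Compounds, 15 concentrations, 0.76% DMSO, were applied to CHO-K1 cells for 3hr at 37C before lysis.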

Compound | Potency | activation (H2AX phosphorylation)
OCC(CO)N[C@H]1C[C@](O)(CO)[C@@H](O)[C@H](O)[C@H]1O | inactive | –
CC1=CC(=C(c2ccc(N)cc2)c2ccc(N)cc2)C=CC1=N | – | inactive: -3.22% [at 14 µM]
OCCOCCN1CCN(C2=Nc3ccccc3Sc3ccccc32)CC1 | inactive | –
COc1ccc(C(=O)Nc2nc3ccccc3c(NCc3ccccc3)c2C#N)cc1 | inconclusive: 113 µM [fluorescent, partial curve] | –
CC(=O)N(O)CCCCCNC(=O)CCC(=O)N(O)CCCCCNC(=O)CCC(=O)N(O)CCCCCN | inconclusive: 49.2 µM [activator, partial curve, poor fit] | –
